# Measured values: the supplement of paper PMC8728848
# Some of the results follow.
# B1: PNGase F (Flavobacterium meningosepticum) (protein)
# chain: GIPAPADNTVNIKTFDKVKNAFGDGLSQSAEGTFTFPADVTAVKTIKMFIKNECPNKTCDEWDRYANVYVKNKTTGEWYEIGRFITPYWVGTEKLPRGLEIDVTDFKSLLSGNTELKIYTETWLAKGREYSVDFDIVYGTPDYKYSAVVPVVQYNKSSIDGVPYGKAHTLALKKNIQLPTNTEKAYLRTTISGWGHAKPYDAGSRGCAEWCFRTHTIAINNSNTFQHQLGALGCSANPINNQSPGNWTPDRAGWCPGMAVPTRIDVLNNSLIGSTFSYEYKFQNWTNNGTNGDAFYAISSFVIAKSNTPISAPVVTNLDPHHHHHH
# What was measured:
# Assay in all cases: glycan array binding signal (z-score within array); higher = stronger binding
# Settings in all cases: glycan notation: IUPAC condensed, linker removed
# [1] = molecular target: GlcNAc(b1-4)GlcNAc(b1-4)GlcNAc(b1-4)GlcNAc(b1-4)GlcNAc(b1-4)GlcNAc
# Summary of the method: (§1)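 The binding signal is a Z-score computed within each array and averaged over linkers. Arrays of the same protein sequence at different concentrations or buffers were also averaged together. Data originate from 3228 arrays in the Consortium for Functional Glycomics database, kept only where the protein sequence was available.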
# [2] = molecular target: GlcNAc(b1-4)[GlcNAc(b1-6)]GalNAc
# Summary of the method: as §1
# [3] = molecular target: GlcNAc(b1-6)Gal(b1-4)GlcNAc
# Summary of the method: as §1
# [4] = molecular target: GlcNAc(b1-6)GalNAc
# Summary of the method: as §1
# [5] = molecular target: GlcNAc6S(b1-3)Gal(b1-4)GlcNAc
# Summary of the method: as §1
# [6] = molecular target: Kdn(a2-3)Gal(b1-3)GalNAc
# Summary of the method: as §1
# [7] = molecular target: Kdn(a2-3)Gal(b1-3)GlcNAc
# Summary of the method: as §1
# [8] = molecular target: Kdn(a2-3)Gal(b1-4)Glc
# Summary of the method: as §1
# [9] = molecular target: Kdn(a2-3)Gal(b1-4)GlcNAc
# Summary of the method: as §1
# [10] = molecular target: Kdn(a2-3)Gal(b1-4)[Fuc(a1-3)]GlcNAc
# Summary of the method: as §1
# [11] = molecular target: Kdn(a2-6)Gal(b1-4)GlcNAc
# Summary of the method: as §1
# [12] = molecular target: Man(a1-2)Man(a1-2)Man(a1-3)Man
# Summary of the method: as §1
# [13] = molecular target: Man(a1-2)Man(a1-2)Man(a1-6)[Man(a1-3)]Man
# Summary of the method: as §1
# [14] = molecular target: Man(a1-2)Man(a1-3)Man
# Summary of the method: as §1
# [15] = molecular target: Man(a1-2)Man(a1-3)[Man(a1-2)Man(a1-6)]Man
# Summary of the method: as §1
# [16] = molecular target: Man(a1-2)Man(a1-3)[Man(a1-2)Man(a1-6)]Man(a1-6)[Man(a1-2)Man(a1-2)Man(a1-3)]Man
# Summary of the method: as §1
# [17] = molecular target: Man(a1-2)Man(a1-3)[Man(a1-2)Man(a1-6)]Man(a1-6)[Man(a1-2)Man(a1-2)Man(a1-3)]Man(b1-4)GlcNAc(b1-4)GlcNAc
# Summary of the method: as §1
# [18] = molecular target: Man(a1-2)Man(a1-3)[Man(a1-6)]Man(a1-6)[Man(a1-2)Man(a1-3)]Man(b1-4)GlcNAc(b1-4)GlcNAc
# Summary of the method: as §1
# [19] = molecular target: Man(a1-2)Man(a1-6)[Man(a1-3)]Man(a1-6)[Man(a1-2)Man(a1-2)Man(a1-3)]Man
# Summary of the method: as §1
# [20] = molecular target: Man(a1-2)Man(a1-6)[Man(a1-3)]Man(a1-6)[Man(a1-2)Man(a1-2)Man(a1-3)]Man(b1-4)GlcNAc(b1-4)GlcNAc
# Summary of the method: as §1
# [21] = molecular target: Man(a1-3)[Man(a1-6)]Man
# Summary of the method: as §1
# [22] = molecular target: Man(a1-3)[Man(a1-6)]Man(a1-6)[Man(a1-2)Man(a1-3)]Man(b1-4)GlcNAc(b1-4)GlcNAc
# Summary of the method: as §1
# [23] = molecular target: Man(a1-3)[Man(a1-6)]Man(a1-6)[Man(a1-3)]Man
# Summary of the method: as §1
# [24] = molecular target: Man(a1-3)[Man(a1-6)]Man(a1-6)[Man(a1-3)]Man(b1-4)GlcNAc(b1-4)GlcNAc
# Summary of the method: as §1
# [25] = molecular target: Man(a1-3)[Man(a1-6)]Man(b1-4)GlcNAc(b1-4)GlcNAc
# Summary of the method: as §1
# [26] = molecular target: Man(a1-3)[Man(a1-6)]Man(b1-4)GlcNAc(b1-4)[Fuc(a1-6)]GlcNAc
# Summary of the method: as §1
# [27] = molecular target: Man(a1-6)Man
# Summary of the method: as §1
# [28] = molecular target: Man(b1-4)GlcNAc
# Summary of the method: as §1
# [29] = molecular target: MurNAc(b1-4)GlcNAc
# Summary of the method: as §1
# [30] = molecular target: Neu5Ac(a2-3)Gal
# Summary of the method: as §1
# [31] = molecular target: Neu5Ac(a2-3)Gal(b1-3)GalNAc
# Summary of the method: as §1
# [32] = molecular target: Neu5Ac(a2-3)Gal(b1-3)GalNAc(b1-3)Gal(a1-4)Gal(b1-4)Glc
# Summary of the method: as §1
# [33] = molecular target: Neu5Ac(a2-3)Gal(b1-3)GalNAc(b1-4)Gal(b1-4)Glc
# Summary of the method: as §1
# [34] = molecular target: Neu5Ac(a2-3)Gal(b1-3)GalNAc(b1-4)[Neu5Ac(a2-3)]Gal(b1-4)Glc
# Summary of the method: as §1
# [35] = molecular target: Neu5Ac(a2-3)Gal(b1-3)GalNAc(b1-4)[Neu5Ac(a2-8)Neu5Ac(a2-3)]Gal(b1-4)Glc
# Summary of the method: as §1
# [36] = molecular target: Neu5Ac(a2-3)Gal(b1-3)GalNAc6S
# Summary of the method: as §1
# [37] = molecular target: Neu5Ac(a2-3)Gal(b1-3)GlcNAc
# Summary of the method: as §1
binder,measurement,setting,value
B1,glycan array binding signal (z-score),[1],0.061
same,glycan array binding signal (z-score),[2],-0.272
same,glycan array binding signal (z-score),[3],-0.067
same,glycan array binding signal (z-score),[4],-0.018
same,glycan array binding signal (z-score),[5],-0.146
same,glycan array binding signal (z-score),[6],0.37
same,glycan array binding signal (z-score),[7],-0.39
same,glycan array binding signal (z-score),[8],1.02
same,glycan array binding signal (z-score),[9],-0.304
same,glycan array binding signal (z-score),[10],0.935
same,glycan array binding signal (z-score),[11],-0.034
same,glycan array binding signal (z-score),[12],1.49
same,glycan array binding signal (z-score),[13],-0.391
same,glycan array binding signal (z-score),[14],0.056
same,glycan array binding signal (z-score),[15],-0.274
same,glycan array binding signal (z-score),[16],-0.238
same,glycan array binding signal (z-score),[17],0.516
same,glycan array binding signal (z-score),[18],-0.325
same,glycan array binding signal (z-score),[19],-0.048
same,glycan array binding signal (z-score),[20],-0.095
same,glycan array binding signal (z-score),[21],-0.016
same,glycan array binding signal (z-score),[22],-0.216
same,glycan array binding signal (z-score),[23],1.07
same,glycan array binding signal (z-score),[24],-0.198
same,glycan array binding signal (z-score),[25],-0.177
same,glycan array binding signal (z-score),[26],-0.252
same,glycan array binding signal (z-score),[27],0.466
same,glycan array binding signal (z-score),[28],0.05
same,glycan array binding signal (z-score),[29],-0.216
same,glycan array binding signal (z-score),[30],-0.034
same,glycan array binding signal (z-score),[31],0.561
same,glycan array binding signal (z-score),[32],-0.331
same,glycan array binding signal (z-score),[33],0.526
same,glycan array binding signal (z-score),[34],-0.289
same,glycan array binding signal (z-score),[35],-0.236
same,glycan array binding signal (z-score),[36],-0.204
same,glycan array binding signal (z-score),[37],-0.229
